Laboratory results: publication PMC4336329 (PLoS ONE, 2015)
About 2,200 (0.71%) of roughly 310,000 compounds showed an effect of 50% or more. The effect is printed as a negative number. Some of the results follow.

Each compound was assayed against human ether-à-go-go-related gene (hERG) potassium channel (human, UniProt Q12809) (assay: primary screen, population patch clamp on CHO cells stably expressing hERG).
Chain of human ether-à-go-go-related gene (hERG) potassium channel (Q12809 whole entry, looked up): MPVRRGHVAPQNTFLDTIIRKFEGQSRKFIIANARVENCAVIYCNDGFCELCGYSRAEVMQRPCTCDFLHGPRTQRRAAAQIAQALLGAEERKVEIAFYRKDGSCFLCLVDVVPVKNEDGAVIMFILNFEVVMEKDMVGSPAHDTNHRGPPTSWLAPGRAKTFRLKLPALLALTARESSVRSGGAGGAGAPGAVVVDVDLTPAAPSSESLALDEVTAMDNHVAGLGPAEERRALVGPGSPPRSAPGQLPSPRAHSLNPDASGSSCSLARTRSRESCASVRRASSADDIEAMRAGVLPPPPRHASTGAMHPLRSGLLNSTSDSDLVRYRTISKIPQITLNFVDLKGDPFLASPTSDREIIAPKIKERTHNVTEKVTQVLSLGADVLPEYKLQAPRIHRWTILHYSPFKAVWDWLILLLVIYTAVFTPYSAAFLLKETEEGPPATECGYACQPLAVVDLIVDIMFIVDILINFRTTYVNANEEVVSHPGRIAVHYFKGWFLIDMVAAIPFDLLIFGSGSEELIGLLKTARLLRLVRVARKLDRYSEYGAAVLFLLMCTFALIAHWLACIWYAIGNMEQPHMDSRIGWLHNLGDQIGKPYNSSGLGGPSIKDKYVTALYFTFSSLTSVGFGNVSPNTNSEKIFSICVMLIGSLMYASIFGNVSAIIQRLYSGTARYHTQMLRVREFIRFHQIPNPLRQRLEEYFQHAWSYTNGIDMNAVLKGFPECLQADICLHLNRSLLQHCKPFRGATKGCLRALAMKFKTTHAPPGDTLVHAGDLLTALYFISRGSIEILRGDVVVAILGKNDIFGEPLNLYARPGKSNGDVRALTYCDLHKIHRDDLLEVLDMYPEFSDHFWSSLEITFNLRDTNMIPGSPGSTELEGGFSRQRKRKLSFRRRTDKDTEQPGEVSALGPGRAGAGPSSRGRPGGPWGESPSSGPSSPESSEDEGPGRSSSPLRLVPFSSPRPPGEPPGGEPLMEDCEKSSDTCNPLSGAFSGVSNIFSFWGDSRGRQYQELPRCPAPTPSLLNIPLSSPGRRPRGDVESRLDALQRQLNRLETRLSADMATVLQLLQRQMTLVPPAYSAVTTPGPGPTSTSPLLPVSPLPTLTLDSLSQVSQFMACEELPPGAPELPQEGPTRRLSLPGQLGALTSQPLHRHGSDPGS

Compound | hERG current change (%, negative = inhibition) at 1uM [%]
O=C(CC(=O)N/N=C/c1ccccc1)NCc1ccccc1 | 8.85
O=C(CC1C(=O)NCCN1C/C=C/c1ccccc1)NCCc1cnccn1 (stereo not drawn) | 14.8
CCn1c(SCC(=O)n2nc(C)cc2C)nnc1-c1ccc2c(c1)OCO2 | -0.488
Cc1onc(-c2ccccc2)c1C(=O)Nc1sc2c(c1C#N)CCC2 | 0.929
CCN(CC)C(=O)CSc1nc(N)c(C(=O)Nc2ccc(OC)cc2)s1 | 0.991
CN(Cc1cccc(Cl)c1Cl)C(=O)c1ccc(NC(=O)CC#N)cc1 | 4.4
CC1CCN(S(=O)(=O)CCNC(=O)c2ccc(F)cc2)CC1 | 6.14
CCOC(=O)c1nn(-c2ccccc2)c2nnc(Cc3ccc(Cl)cc3)c(=O)n12 | -0.0021
COc1cccc(C(=O)Nc2ccc(NC(=O)c3cc4ccccc4o3)c(OC)c2)c1 | 12.8
Cc1cc(C)c2nc(NC(=O)C3CC(=O)N(Cc4ccco4)C3)sc2c1 (stereo not drawn) | 1.2
Cc1c(NC(=O)C(C)Sc2nccn2C)c(=O)n(-c2ccccc2)n1C (stereo not drawn) | 15.3
CCOC(=O)c1ccc2[nH]c3ccccc3c2c1 | 17.4
CCOc1cc(CNC(CC)CO)ccc1OCC(=O)Nc1cccc(C(F)(F)F)c1 (stereo not drawn) | -3.56
CCCn1c(SCC(=O)c2ccc3c(c2)OCCO3)n[nH]c1=O | 15.7
CCN(C(=O)c1ccc2c(Cl)c3c(nc2c1)CCC3)c1ccc(C)c(C)c1 | 15.1
C=CCSc1nnc(-c2ccccc2N=Cc2c(C)[nH]n(-c3ccccc3)c2=O)c(=O)[nH]1 | 4.33
CCOC(=O)NCc1ccc2c(c1)OCO2 | 15.6
CCCn1c(CCNc2nc(-c3ccc(Cl)c([N+](=O)[O-])c3)cs2)nc2cc(Cl)c(Cl)cc21 | -21.7
c1ccc2c(CNC3CCCCCC3)c[nH]c2c1 | -3.42
O=C1CC(NS(=O)(=O)c2cccnc2)CN1c1ccc(Cl)cc1 (stereo not drawn) | 4.07
COc1ccc(C)cc1S(=O)(=O)NCc1cccs1 | -2.26
S=C(c1ccc(-c2cc(Cl)ccc2Cl)o1)N1CCCCC1 | 5.21

Compound | hERG current change (%, negative = inhibition) at 1uM [%]
CCC(=O)NCc1ccc2[nH]c(C)cc2c1 | 24.9
COCCNC(=O)c1ccccc1NC(=O)c1ccccc1N(C)S(=O)(=O)c1ccccc1 | 11.4
COCCCNc1nc(CC(C)C)nc2c1nnn2Cc1ccccc1 | 8.31
COc1ccc(C2NCc3ccccc3-n3cccc32)cc1.Cl (stereo not drawn) | 6.07
CC1(C)C(=O)Nc2ccccc2N1C(=O)COC(=O)c1cccnc1 | 8.14
C=CCNC(=S)NNC(=O)c1ccc(C)c(Cl)c1 | 33.6
CCc1ccc(N2C(=O)C3NN=C(C(=O)OCc4ccccc4)C3C2=O)cc1 (stereo not drawn) | 5.43
CN1C(=S)SC(C)(NO)C1(C)C (stereo not drawn) | 21.6
COc1cc(C(=O)OCC(=O)NCC2CCCCC2)ccc1OCC(C)C | 3.08
CCOC(=O)c1c(C)nc(SCC(N)=O)c(C#N)c1-c1ccccc1 | 17.4
CCCCC1=CC2=CC(=O)C(C)(OC(=O)CC)C(=O)C2=CN1Cc1ccccc1 (stereo not drawn) | -12.6
O=C(Nc1ncccc1O)c1ccc(C(=O)c2ccccc2)cc1 | 0.367
O=C(COc1ccc(Br)cc1)Nc1nc(-c2cccnc2)cs1 | 7.66
O=C(CN1C(=O)c2cccc3cccc1c23)NCC1CCCO1 (stereo not drawn) | 4.84
O=C(C1CCCCN1S(=O)(=O)c1ccccc1)N1CCN(C(c2ccccc2)c2ccccc2)CC1 (stereo not drawn) | -2.69
CCc1ccccc1NC(=O)CN(C)C(=O)CN1C(=O)NC2(CCCCCC2)C1=O | -1.28
C=C(C)CN(CC)C(=O)c1ccc(OC2CCN(S(=O)(=O)N(C)C)CC2)cc1 | 9.36
Brc1ccc(-c2nnc3sc(CNCc4ccc5c(c4)OCO5)cn23)cc1 | 1.45
Nc1cc(N)nc(SCC(=O)N2CCN(S(=O)(=O)c3ccccc3)CC2)n1 | 3.24
CCOC(=O)c1cnc(-n2nc(C)cc2C)nc1NNc1ncc(-c2ccccc2)cn1 | -5.49
COCCC1CCCCN1C(=O)c1ccc(OC2CCN(C(C)=O)CC2)c(OC)c1 (stereo not drawn) | 11.1
CC(C)Sc1nnc(SCC(=O)N(C)C2CCS(=O)(=O)C2)s1 (stereo not drawn) | 9.04

Compound | hERG current change (%, negative = inhibition) at 1uM [%]
CCCn1c(N)c(C(=O)CSc2nnc3n2CCCCC3)c(=O)n(C)c1=O | 10.9
CCOc1ccc(N=C2NC(=O)CS2)cc1 | 11.1
COc1cc(C(=O)NCC(C)(C)CNC(=O)c2cc(OC)c(OC)c(OC)c2)cc(OC)c1OC | 15.5
COc1ccc(C(=O)C[n+]2ccccc2/C=N/O)cc1.[Br-] | 13.6
COc1ccc2[nH]c(O)c(N=NC(=O)Cc3cccs3)c2c1 | 5.53
COc1ccc(OC)c(NC(=O)CCNC(=O)Cn2ccc3ccccc3c2=O)c1 | 12.5
O=C(O)CCCCCNC(=O)Cn1nnc2ccccc2c1=O | 11.6
O=C(c1ccccc1-c1nc(-c2ccc(Cl)cc2)no1)N1CCCC1 | 10.1
Cc1ccccc1NC(=S)N/N=C/C(C)c1ccccc1 (stereo not drawn) | 9.03
c1ccc2sc(-c3ccc4c(c3)OCO4)nc2c1 | 4.67
O=C(COc1ccc2c(-c3ccccc3)cc(=O)oc2c1)NCCN1CCOCC1 | 2.3
O=C(CC(=O)c1ccccc1)Nc1ccccc1 | 7.17
Cc1cc(SCC(=O)c2ccc(O)c(O)c2)nc2ccccc12 | 6.8
CC(C)(C)NC(=O)c1ccc(Sc2ccccc2)c([N+](=O)[O-])c1 | -2.57
O=C(Cc1ccc(-n2cccc2)cc1)NCc1ccccc1Cl | 7.19
CCOC(=O)N1CCc2c(sc(NC(=O)CN3CCOCC3)c2C#N)C1 | 8.66
CC1(OC(=O)C2CCCC2)C(=O)C=C2C=C(c3ccsc3)N(Cc3ccc4c(c3)OCO4)C=C2C1=O (stereo not drawn) | -4.99
Cc1c(C(c2ccc(O)cc2)c2c(C)n(C)n(-c3ccccc3)c2=O)c(=O)n(-c2ccccc2)n1C | 19.9
Cc1ccc(C)c(OCc2ccc(C(=O)Nc3ccc([N+](=O)[O-])cn3)o2)c1 | 16.5
O=C(Cn1cnc2c(nnn2Cc2ccc(F)cc2)c1=O)N1CCCc2ccccc21 | 8.32
O=C(CCNS(=O)(=O)c1cccc2nsnc12)NCc1ccccc1Cl | 11
CN1CCN(C(=O)C2=C[C@H](c3csc4ccccc34)C[C@H](OCCCCO)O2)CC1 | 6.38

Compound | hERG current change (%, negative = inhibition) at 1uM [%]
Cc1cccc(C(=O)NC(=S)NCc2cccnc2)c1 | 5.34
CCN1CCN(c2nc(Nc3ccc(C)c(C)c3)nc(N)c2[N+](=O)[O-])CC1 | -26.5
Cc1cc(NC(=O)c2cccc(S(=O)(=O)N3CCCCCC3)c2)n(-c2ccccn2)n1 | 16.7
Cc1nn(-c2ccccc2)c(C)c1C(=O)NCc1ccc(F)cc1 | -7.7
COc1cccc(-c2nnc3sc(-c4ccc(C)cc4)nn23)c1 | -5.82
Cc1cccc(C)c1NC(=O)CCCSc1nnc(-c2ccc(Cl)cc2)n1-c1ccccc1 | 5.39
CC(C)CCn1cnc2c(cnn2-c2ccc(F)cc2)c1=O | 13.3
O=C(CN1CCN(Cc2ccccc2)CC1)Nc1ccc(-n2cnnn2)cc1 | -15.1
CN1CCN(C2CC(=O)N(Cc3ccc(N4CCCC4=O)cc3)C2=O)CC1 (stereo not drawn) | 12.8
O=C(CNc1ccc2ccccc2c1)N/N=C/c1ccc(OC(=O)/C=C/c2ccco2)cc1 | 7.97
Cl.c1ccc(CN2CCOCC2)cc1 | 16.6
O=C(Nc1ccccc1N1CCOCC1)C1=NN(c2c(F)c(F)cc(F)c2F)C(=O)CC1 | 13.7
CCn1cc(C(=O)NCC(=O)NC(C)(C)CO)c(=O)c2cc3c(cc21)OCO3 | 13.7
CCCCNC(=S)N=Nc1c(O)[nH]c2ccccc12 | 17.3
O=C(c1cc(N2C(=O)C3C4CCC(C4)C3C2=O)ccc1Cl)N1CCCCCC1 (stereo not drawn) | 5.93
O=C(CSc1nnc(-c2ccccc2)n1Cc1ccccc1)NNC(=O)c1ccccc1O | 16.4
C[C@H](NC(=O)c1ccc(Cl)c(S(=O)(=O)N2CCOCC2)c1)c1nc2ccccc2[nH]1 | 6.52
CC(=O)N1CCC2(CC1)C/C(=N\NC(=S)Nc1ccc(C)cc1)c1cc(O)ccc1O2 | -4.2
O=C(CN1C(=O)c2ccccc2C1=O)N(CCO)Cc1ccccc1 | 9.13
O=S(=O)(c1ccc(Cl)s1)N1CCCCC1 | 16.8
CCC(c1nnnn1CCc1ccccc1)N1CCN(C(=O)c2ccco2)CC1.Cl (stereo not drawn) | 0.523
